Out of some 45,000 compounds screened, about 200 (0.44%) were called active. Not shown: some 7% with an inconclusive outcome. Calls come from the whole dose curve; as a rule, active = well fitted activation curve with a large enough effect; inconclusive = small, poorly fitted or top-dose-only effect; inactive = no such curve, though single readings can be large or run the other way. Some of the results follow.
Experiment: qHTS of TDP-43 Inhibitors: NCGC Sytravon Library Screen; note: 0% is about no effect; nearly all actives have a fitted effect of over 55% in size
Settings: yeast TDP-43 toxicity rescue, BacTiter-Glo growth, 24 h; series mostly up to 46.1 µM; growth rescue (activation): at the top concentration
Procedure, shortened: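 TDP-43-expressing yeast, pregrown in raffinose, seeded at OD600 0.02 in galactose medium with compound for 24 hr at 30 deg C. Growth read by BacTiter-Glo luminescence, so rescue of toxicity appears as activation.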

Compound | growth rescue (activation)
CC(C)(CN1CCN(Cc2ccccc2)CC1)NS(=O)(=O)c1ccccc1 | inactive: 0.735%
CS(=O)(=O)c1ccc2nc(NC(=O)c3ccc(N4C(=O)CCC4=O)cc3)sc2c1 | inactive: -19.7%
COc1ccc(C(=O)NC(=S)Nc2ccc(S(=O)(=O)Nc3cc(C)on3)cc2)cc1OC | inactive: -37.3%
COc1ccc(N(C)S(=O)(=O)c2ccc(Cl)c(C(=O)NNC(=O)c3ccccc3O)c2)cc1 | inactive: 0.0549%
CC(C)NC(=O)c1cc(C2CCCCN2C(=O)c2ccc(C#N)cc2)on1 (stereo not drawn) | inactive: 9.61%
COc1ccc(C(=O)C(C)[n+]2ccc(-c3nnc4n3CCCCC4)cc2)cc1 (stereo not drawn) | inactive: -0.261%
O=c1nc2ccc(Cl)cn2c2ccc(S(=O)(=O)N3CCOCC3)cc12 | inactive: -5.74%
COc1ccccc1NC(=O)Cc1nc(CCl)cs1 | inactive: -9.18%
Cc1cccc(OCC(=O)NCCCNC(=O)c2ccc(C)nc2)c1 | inactive: 10.2%
N#Cc1cc2ccccc2nc1SCC(=O)NC1CC1 | inactive: 9.43%
CCNC(=O)C1(C)CCN(C(=O)c2cccc(OC(F)(F)F)c2)C1 (stereo not drawn) | inactive: 4.66%
COc1ccc(S(=O)(=O)Nc2cccc(C)c2C)c2cccnc12 | inactive: -16.8%
O=C(COc1cccc2ccccc12)N/N=C/c1ccccc1OCc1ccc(C(=O)O)cc1 | inactive: -1.02%
CC(=O)Nc1ccc(N(C(=O)CNC(=O)c2cccs2)C(C(=O)NC(C)(C)C)c2ccccc2)cc1 (stereo not drawn) | inactive: 29.9%
CCc1ccccc1NC(=O)CN1CCN(CC(=O)Nc2ccc(-c3ccccc3)cc2)CC1 | inactive: 18.5%
CC1=C(C(=O)OCC2CCCO2)C(c2ccc(F)cc2)NC(=O)N1 (stereo not drawn) | inactive: 6.83%
CC1(C(=O)NS(=O)(=O)C2CC2)CCN(C(=O)c2cc3ccccc3s2)C1 (stereo not drawn) | inactive: 8.68%
Cc1ccc(S(=O)(=O)NC(=O)C2(C)CCN2C(=O)C2(c3ccc(Cl)cc3)CC2)nc1 (stereo not drawn) | inactive: -3.88%
CCn1c(SCC(=O)Nc2ccc(C)cc2)nnc1-c1ccccn1 | inactive: 16.1%
O=C(c1ccc2c3c(cccc13)CC2)C1CCCN(Cc2cccnc2)C1 (stereo not drawn) | inactive: -0.432%
CCOC(=O)NNC1CC(=O)N(c2ccccc2)C1=O (stereo not drawn) | inactive: -24.7%
S=c1nc(-c2ccc(Br)cc2)oc2c1CCCC2 | inactive: 25.2%
COc1ccccc1NC(=O)c1ccccc1NC(=O)c1cccs1 | inactive: 10.5%

Compound | growth rescue (activation)
CCCCCCCCCCCCCCCC[n+]1ccc(/C=N/O)cc1 | inactive: -89.2%
O=C(N/N=C/c1ccc([N+](=O)[O-])o1)c1ccccc1-n1cccc1 | inactive: 29.4%
COc1cccc(/C=N/NC(=O)c2[nH]nc3c2CCc2ccccc2-3)c1O | inactive: 21.2%
N#CCCN(C(=O)CN1c2cccc3cccc(c23)S1(=O)=O)c1ccccc1 | inactive: 7.15%
O=C(Nc1nc2ccccc2s1)c1ccccc1 | inactive: 22.1%
O=C(O)CNC(=O)/C=C/c1c(Cl)cccc1Cl | inactive: 7.71%
COc1ccc(OC)c(S(=O)(=O)N2CCCC(C(=O)NCCN3CCOCC3)C2)c1 (stereo not drawn) | inactive: 4.16%
Clc1cccc(/C(Cc2nc3ccccc3[nH]2)=N\Nc2ccccc2)c1 | inactive: -76.5%
C=CCn1c(SCc2nc3c(c(=O)[nH]c(=O)n3CCCC)n2CCC)nnc1-c1ccccc1 | inactive: 0.623%
O=C(N/N=C\c1c[nH]c2ccccc12)c1ccc(O)cc1 | inactive: 10.3%
CCOc1ccc(S(=O)(=O)N2CCCCC2)cc1NC(=O)CN1C(=O)NC(C)(C2CC2)C1=O (stereo not drawn) | inactive: 23.1%
CN1CCN(S(=O)(=O)c2cccc(C(=O)Nc3cccc(S(N)(=O)=O)c3)c2)CC1 | inactive: 11.7%
O=Cc1c(N2CCCCC2)nc2ccccn2c1=O | inactive: 8.66%
COc1ccc(C)cc1NC(=O)C1CC(=O)N(CCc2ccc(F)cc2)C1 (stereo not drawn) | inactive: 2.49%
O=C(O)COc1ccccc1C=NNC(=O)c1ccccc1NS(=O)(=O)c1cccs1 | inactive: -10.8%
CCOC(=O)/C(O)=C(\C#N)c1nc2ccccc2[nH]1 | inactive: 4.47%
COc1cc(/C=C/C(=O)O)cc(S(=O)(=O)Nc2ccccc2C(=O)NCCc2ccccc2)c1OC | inactive: 2.65%
COC(=O)COc1c(Cl)cc(C(c2c(C)[nH][nH]c2=O)c2c(C)[nH][nH]c2=O)cc1OC | inactive: -24.7%
CN(CCOc1ccccc1)S(=O)(=O)c1ccc2oc3ccccc3c2c1 | inactive: 25.6%
COc1ccc(OCc2nnc(NC(=O)Nc3ccccc3F)s2)cc1 | inactive: -5.32%
COc1ccccc1N=Nc1[nH]c2ccc(C)cc2c1O | inactive: 11.3%
O=C(Nc1ccc2cn[nH]c2c1)c1c(Cl)cccc1Cl | inactive: -18.7%
CC(C)NC(=S)N(CCc1ccncc1)C(C)C | inactive: -4%

Compound | growth rescue (activation)
COC(=O)c1cc(C#N)c(N2CC(C)OC(C)C2)nc1C (stereo not drawn) | inactive: 0.531%
N#Cc1ccccc1S(=O)(=O)N1CCN(C(=O)CN2CCCSc3ccccc32)CC1 | inactive: 23.7%
Cc1cc(C)c(NC(=O)COC(=O)/C=C/c2cccs2)c(C)c1 | inactive: -8.51%
COC(=O)c1ccc(NC(=O)CCOc2ccccc2)cc1 | inactive: 26.9%
O=C(NCc1ccc(F)cc1)c1cc(C2CCCCN2C(=O)OCCF)on1 (stereo not drawn) | inactive: 6.86%
CC(=O)N1CCC(=NNc2nc3ccccc3[nH]2)CC1 | inactive: -6.18%
Cc1ccc(S(=O)(=O)NCC(=O)NCC(=O)N2CCN(c3ncccn3)CC2)cc1C | inactive: 7.5%
CC(C)CN(CC(C)C)CC(O)COc1ccccc1Br (stereo not drawn) | inactive: 13.8%
CCCOc1ccc(-c2c(=O)n(O)c3ccccc3[n+]2[O-])cc1 | inactive: -12.5%
CCOc1ccc(NC(=O)C/C(C)=N/NC(=O)Cc2cccs2)cc1 | inactive: 5.16%
COc1cc(S(=O)(=O)N2CCCN(C)CC2)ccc1NC(C)=O | inactive: 2.88%
CCOC(=O)N1CCN(Cc2cc(Cl)c3cccnc3c2O)CC1 | inactive: 15.9%
Cc1cccc(NC(=O)Cn2c(=O)oc3cc(S(=O)(=O)N4CCCCCC4)ccc32)c1 | inactive: -3.24%
CCCCc1ccc(NC(=O)c2ccc(NS(C)(=O)=O)cc2)cc1 | inactive: 7.68%
O=C(c1cccc2ccccc12)C1CCCN(C(=O)CCc2cnccn2)C1 (stereo not drawn) | inactive: 18%
Cc1cc(C)cc(N2CCCn3c2nc2c3c(=O)[nH]c(=O)n2C)c1 | inactive: -5.25%
COc1ccc(S(=O)(=O)NC(C)C(=O)NCc2ccco2)cc1OC (stereo not drawn) | inactive: -14.8%
Cc1ccccc1NC(=O)c1ccc(S(=O)(=O)N2CCCC2)cc1 | inactive: 12.7%
COc1ccc(NC(C)=O)cc1NC(=O)CSc1nnc(C2CCCCC2)n1N | inactive: 9.78%
O=C1CC(N2CCN(S(=O)(=O)c3ccccc3F)CC2)C(=O)N1c1ccccc1Cl (stereo not drawn) | inactive: 35.3%
Cc1cnc(C(=O)OCC(=O)NC2CCCCCC2)cn1 | inactive: -0.107%
COc1ccc(-c2nn(-c3ccccc3)cc2/C=C\C(=O)Nc2ccc(C(=O)O)cc2)cc1 | inactive: -4.16%

Source: PubChem BioAssay AID1347073 (National Center for Advancing Translational Sciences (NCATS), 2019)
